Data taken from article PMC4336329 (PLoS ONE, 2015).
The campaign covered roughly 310,000 compounds. About 2,200 (0.71%) showed an effect of 50% or more. Effects have a minus sign here. Some of the results follow.

molecular target: human ether-à-go-go-related gene (hERG) potassium channel (human, UniProt Q12809); experiment: primary screen, population patch clamp on CHO cells stably expressing hERG
Sequence (Q12809 whole entry, looked up): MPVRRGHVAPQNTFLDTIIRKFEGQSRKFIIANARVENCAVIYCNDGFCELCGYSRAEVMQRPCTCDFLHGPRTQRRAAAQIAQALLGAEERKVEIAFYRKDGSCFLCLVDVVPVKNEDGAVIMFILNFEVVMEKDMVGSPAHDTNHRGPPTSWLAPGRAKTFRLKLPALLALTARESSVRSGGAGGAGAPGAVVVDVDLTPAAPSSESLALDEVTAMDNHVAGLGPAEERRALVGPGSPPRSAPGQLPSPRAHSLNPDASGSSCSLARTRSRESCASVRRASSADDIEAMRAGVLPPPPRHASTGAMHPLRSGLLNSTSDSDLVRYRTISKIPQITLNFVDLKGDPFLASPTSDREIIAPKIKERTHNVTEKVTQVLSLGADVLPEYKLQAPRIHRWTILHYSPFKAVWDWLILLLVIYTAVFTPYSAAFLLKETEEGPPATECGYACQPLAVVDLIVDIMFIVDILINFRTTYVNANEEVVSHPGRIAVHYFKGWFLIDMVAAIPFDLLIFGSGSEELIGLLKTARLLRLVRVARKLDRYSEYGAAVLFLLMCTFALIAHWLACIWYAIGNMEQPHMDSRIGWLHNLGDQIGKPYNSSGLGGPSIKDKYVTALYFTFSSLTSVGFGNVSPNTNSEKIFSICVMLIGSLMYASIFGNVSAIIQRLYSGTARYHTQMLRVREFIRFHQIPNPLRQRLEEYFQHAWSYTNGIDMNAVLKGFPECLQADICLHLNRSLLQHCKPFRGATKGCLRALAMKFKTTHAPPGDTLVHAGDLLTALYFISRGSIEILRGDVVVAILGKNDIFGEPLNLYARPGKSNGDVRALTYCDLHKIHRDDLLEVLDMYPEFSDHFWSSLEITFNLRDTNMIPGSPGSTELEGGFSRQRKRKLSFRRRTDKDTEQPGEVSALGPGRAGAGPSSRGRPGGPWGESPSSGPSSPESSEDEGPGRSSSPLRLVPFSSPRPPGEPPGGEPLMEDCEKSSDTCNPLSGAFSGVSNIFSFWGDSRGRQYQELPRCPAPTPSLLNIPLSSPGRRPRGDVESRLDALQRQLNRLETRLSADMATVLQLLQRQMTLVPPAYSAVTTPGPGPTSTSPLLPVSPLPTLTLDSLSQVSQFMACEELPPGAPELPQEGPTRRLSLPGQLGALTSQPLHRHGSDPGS

Row | SMILES | hERG current change (%, negative = inhibition) at 1uM
1 | COc1cc(-c2nc3n(n2)C(c2ccncc2)C2=C(CCCC2=O)N3)cc(OC)c1OC (stereo not shown) | 26%
2 | CCNC(=O)NC(=O)C(C)OC(=O)CNS(=O)(=O)c1c(Cl)cc(Br)cc1Cl (stereo not shown) | 9.18%
3 | Cc1ccc(-c2nn(-c3ccc(F)cc3)cc2C(=O)NCC(c2cccs2)N2CCOCC2)cc1 (stereo not shown) | 5.75%
4 | Cc1ccccc1C(=O)NC(=S)N(CCO)Cc1ccccc1 | 11.7%
5 | O=C(/C=C/c1cccs1)N1CCC2(CC1)Oc1ccc(Cl)cc1C(=O)C21CC(c2ccc(Cl)cc2)=NO1 (stereo not shown) | 11.9%
6 | O=C(COC(=O)c1ccccc1Cc1ccccc1)Nc1ccc(SC(F)F)cc1 | 4.53%
7 | CCNS(=O)(=O)c1ccc(S(=O)(=O)N(Cc2ccccn2)C2CCCCC2)cc1 | 13.4%
8 | O=C(NN1C(=O)NC2(CCCCC2)C1=O)c1ccc(-c2ccccc2Cl)o1 | 1.11%
9 | O=C1C=C(c2ccc(Br)c3ccccc23)C[C@@H](c2ccc3c(c2)OCO3)C1 | 0.659%
10 | COc1cc2[nH]c(=O)n(CCC(=O)NC3CCCC3)c(=O)c2cc1OC | 11.2%
11 | Cc1ccc2nc(-c3cccc(Br)c3)cc(C(=O)NC3CC3)c2c1 | 18.5%
12 | CN(C(=O)c1cccc(Br)c1)C1CCS(=O)(=O)C1 (stereo not shown) | 10.5%
13 | O=[N+]([O-])c1ccc2c(c1)[nH]c(=S)n2-c1ccccc1 | 8.39%
14 | O=C(CN1CCCCCC1)Nc1ccc([N+](=O)[O-])cc1Br | 10.1%
15 | COC(=O)c1c(NC(=O)c2nn(C)cc2Cl)sc2c1CCCC2 | 19.3%
16 | Cc1cccc(C(=O)NN2S(=O)(=O)c3ccccc3S2(=O)=O)c1 | 16.2%
17 | COc1cc(C(=O)Nc2ccc(S(=O)(=O)Nc3cc(C)nc(C)n3)cc2)cc(OC)c1OC | 8.09%
18 | Cc1ccc(Nc2c([N+](=O)[O-])ccc3nonc23)c(C)c1 | 14.6%
19 | CCOC(=O)C1=C(N2CCCCC2)c2cc3c(n2C1=O)CCCC3 | 0.903%
20 | Cc1cc(C)cc(C(=O)Nc2cccc(NC(=O)c3ccco3)c2)c1 | 10.4%
21 | CCOC(=O)C1=C(C)N(C)C(=O)NC1c1c(OC)ccc2ccccc12 (stereo not shown) | 13.6%
22 | CCOC(=O)c1nnn(-c2nonc2N)c1CSc1ccccc1 | -3.14%

Row | SMILES | hERG current change (%, negative = inhibition) at 1uM
23 | COc1ccc(CN(C)C(=O)c2ccc(Cl)c(S(=O)(=O)NCc3cccnc3)c2)cc1F | -2.73%
24 | COc1ccccc1NS(=O)(=O)c1ccc(C)c(C(=O)NCCCN2CCCC2=O)c1 | 13.2%
25 | Cn1cnc(S(=O)(=O)NC2CCN(Cc3ccccc3)CC2)c1 | 18%
26 | CC(O)CN(C)CC/C=C1/c2ccccc2CSc2ccccc21.Cl (stereo not shown) | 1.02%
27 | Cc1cc(C)nc(NC(=O)c2ccc(Cl)cc2[N+](=O)[O-])c1 | 1.78%
28 | O=S1(=O)C=CC(c2ccccc2)C1 (stereo not shown) | 9.87%
29 | CCCCCN(C(=O)CCC(=O)OCC(=O)NCc1ccc(OC)cc1)c1c(N)n(CCCC)c(=O)[nH]c1=O | 3.41%
30 | O=c1[nH]c(CN2CCN(S(=O)(=O)c3ccc4c(c3)OCCO4)CC2)nc2sc3c(c12)CCCC3 | 9.24%
31 | CCCCN(CC)CCNC(=O)c1cc2c(=O)n(C)c3ccccc3c2n1C | -1.56%
32 | CC(C)n1nc(C(=O)Oc2ccc(Cl)cc2)c2ccccc2c1=O | 9.03%
33 | Cc1cc(=O)[nH]c(-c2cccnc2)n1 | 17.4%
34 | COc1ccc(Br)cc1CN(C)CC(=O)Nc1cc(Cl)ccc1Cl | 13.8%
35 | Cc1ccccc1-n1nnc2c(=O)oc3ccccc3c21 | 11.7%
36 | COc1cc(C(=O)OC2CCN(C)CC2)cc(OC)c1OC.Cl | 4.07%
37 | Cc1ccc(-c2nnc(N3CCN(CCO)CC3)c3ccccc23)cc1 | -13.2%
38 | O=C(c1ccccc1F)N1CCN(S(=O)(=O)c2ccc(S(=O)(=O)N3CCCCCC3)cc2)CC1 | 3.69%
39 | N#Cc1nc(-c2cccs2)oc1NCCCN1CCOCC1 | 10.3%
40 | CC1=CC(=C2N=C(c3ccccc3)OC2=O)C=C(C)O1 | -15.1%
41 | Cc1ccc(Nc2nc3ccccc3c(=O)s2)cc1 | 5.77%
42 | COc1cc(NC(=S)N2c3ccccc3CC2C)cc(OC)c1 (stereo not shown) | 14.3%
43 | Cc1onc(-c2c(F)cccc2Cl)c1C(=O)NC(C)c1ccccc1 (stereo not shown) | 13.1%
